Results: paper PMC4336329 (PLoS ONE, 2015)
Screen size: about 310,000 compounds; about 2,200 (0.71%) showed an effect of 50% or more. Effects have a minus sign here. The list shows a part of the results.

What follows are molecules tested against human ether-à-go-go-related gene (hERG) potassium channel (human, UniProt Q12809) (assay: primary screen, population patch clamp on CHO cells stably expressing hERG).
Chain of human ether-à-go-go-related gene (hERG) potassium channel (Q12809 whole entry, looked up): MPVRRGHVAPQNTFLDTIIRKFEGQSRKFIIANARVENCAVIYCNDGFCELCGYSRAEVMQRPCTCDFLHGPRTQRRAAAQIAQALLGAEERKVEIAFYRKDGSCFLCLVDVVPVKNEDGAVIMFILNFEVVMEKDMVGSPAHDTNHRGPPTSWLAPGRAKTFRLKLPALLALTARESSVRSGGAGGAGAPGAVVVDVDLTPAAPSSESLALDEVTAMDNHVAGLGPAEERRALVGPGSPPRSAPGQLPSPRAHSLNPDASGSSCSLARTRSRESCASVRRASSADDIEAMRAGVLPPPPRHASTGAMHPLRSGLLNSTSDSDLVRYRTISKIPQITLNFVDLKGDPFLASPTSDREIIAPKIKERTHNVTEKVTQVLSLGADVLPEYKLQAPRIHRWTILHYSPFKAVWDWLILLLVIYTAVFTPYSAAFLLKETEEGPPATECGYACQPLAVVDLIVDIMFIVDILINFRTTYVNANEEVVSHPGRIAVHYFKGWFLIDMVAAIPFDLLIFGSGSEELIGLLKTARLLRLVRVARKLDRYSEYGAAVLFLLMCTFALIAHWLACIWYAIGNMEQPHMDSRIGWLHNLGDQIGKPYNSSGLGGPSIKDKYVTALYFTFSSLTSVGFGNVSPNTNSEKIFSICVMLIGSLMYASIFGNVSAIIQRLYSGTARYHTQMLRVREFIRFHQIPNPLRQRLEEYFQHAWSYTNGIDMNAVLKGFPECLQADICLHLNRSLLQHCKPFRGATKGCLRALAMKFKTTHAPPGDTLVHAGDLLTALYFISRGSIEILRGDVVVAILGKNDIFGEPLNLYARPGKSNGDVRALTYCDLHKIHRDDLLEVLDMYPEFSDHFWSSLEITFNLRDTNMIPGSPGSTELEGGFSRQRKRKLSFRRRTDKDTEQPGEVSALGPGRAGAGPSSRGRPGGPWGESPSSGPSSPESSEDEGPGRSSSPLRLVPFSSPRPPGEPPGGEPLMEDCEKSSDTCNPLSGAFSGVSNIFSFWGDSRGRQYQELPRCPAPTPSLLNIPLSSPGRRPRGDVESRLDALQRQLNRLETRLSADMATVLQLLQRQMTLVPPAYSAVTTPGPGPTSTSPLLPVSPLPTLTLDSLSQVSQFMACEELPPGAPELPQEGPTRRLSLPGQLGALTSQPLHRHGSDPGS

Structure (SMILES) | hERG current change (%, negative = inhibition) at 1uM [%]
N#CC1(NC(=O)COc2ccc3oc4ccccc4c3c2)CCCCC1 | 11.8
O=C(CCCN1C(=O)/C(=C/c2cccs2)SC1=S)Nc1ccccc1O | 8.37
CC(C)CCNC(=O)COc1ccc2c3c(c(=O)oc2c1)CCC3 | 7.29
O=C(NCCN1CCOCC1)c1cc([N+](=O)[O-])cc([N+](=O)[O-])c1 | 12.5
O=C(O)c1ccc2cccc(O)c2n1 | 14.3
COc1ccc(CCNC(=S)NNC(=O)c2c(Br)c(C)nn2C)cc1OC | 14
CS(=O)(=O)c1ccc2nc(NC(=O)Oc3ccccc3)sc2c1 | 11
CCOC(=O)C1CCN(C(=O)c2ccc3nc(-c4ccc(OC)cc4)c(-c4ccc(OC)cc4)nc3c2)CC1 | 14.3
COc1cccc(CC(=O)OCC(=O)NC2CCCC2)c1 | 8.81
COC(=O)Nc1nc2ccc(C(=O)c3ccc(F)cc3)cc2[nH]1 | 13.7
COc1ccc(CNC(=O)c2ccccc2SCC(=O)N2CCCC2)cc1OC | 11.4
CC(=O)c1ccc(NC(=O)CN(c2c(C)cccc2C)S(C)(=O)=O)cc1 | 14.4
CCOc1ccc(S(=O)(=O)N2c3ccccc3CC2C)cc1 (stereo not drawn) | 9.93
O=C(Nc1ccccc1)C1=C[C@@H](C2CC2)C[C@@H](OCc2ccc(CO)cc2)O1 | 8.92
CSc1nc(N2CCN(c3ccccc3Cl)CC2)c2ccccc2n1 | 11.6
CC(=O)N1C2CCCCC2S[C@H]2CCCCC21 (stereo partly drawn) | 14.8
Cc1cc(Br)ccc1SCC(=O)NNC(=O)c1ccco1 | 8.81
Cc1ccc(OCC(=O)NCc2ccccn2)c(Br)c1 | 4.5
CCOC(=O)N1CCN(C(=O)COc2ccc3c(c2)C(=O)CC(C)(C)O3)CC1 | 12.2

Structure (SMILES) | hERG current change (%, negative = inhibition) at 1uM [%]
COc1cccc(-c2nc(CS(=O)CC(=O)NCc3ccccc3)c(C)o2)c1 (stereo not drawn) | 10.8
O=C(CN1CCOCC1)NCc1ccccc1 | 17.4
COc1ccc(-c2cc(C(F)(F)F)nc(SCCC(=O)N3CCOCC3)n2)cc1 | 1.29
CC(C)S(=O)(=O)CC(=O)c1ccc(Cl)cc1 | 16.5
CCc1nnc(NC=C2C(=O)OC(C)(C)OC2=O)s1 | 3.72
Cc1oc2c(O)c(O)ccc2c(=O)c1-c1cnn(-c2ccccc2)c1 | -10.1
CCN1CCN(CC(O)COCc2ccccc2)CC1.Cl (stereo not drawn) | 23.5
Nc1ccc(C(=O)NCCCSc2ccccc2)cc1[N+](=O)[O-] | 12.5
C/C(CCc1ccc2c(c1)OCO2)=N\N=C1\NC(=O)CC(C(=O)Nc2ccccc2)S1 (stereo not drawn) | -1.54
COc1cccc(C(=O)N2CCCC(Nc3ccc(C)c(C)c3)C2)c1 (stereo not drawn) | 8.93
Clc1ccc(-c2nnc(SCc3cn4ccsc4n3)n2CC2CCCO2)cc1 (stereo not drawn) | -2.27
CC(C)Sc1nc2ccsc2c(=O)[nH]1 | 8.75
CCCCC[C@H]1CN(CCc2ccccc2)C(=O)[C@@H]1CC(=O)NCc1ccc(OC)cc1 | -28.1
O=C(CCc1nc(-c2ccc(Cl)cc2)no1)NCc1ccccc1CN1CCOCC1 | -4.84
Cc1ccc(CNC(=O)CCCc2ccccc2)cc1 | -1.51
COc1cc(Br)c(CCNC(=O)Cc2ccccc2)cc1OC | 1.68
C=CCn1c(SCC(=O)NCc2ccccc2)nnc1-c1cc(Br)ccc1O | 1.72
CC(C)(C)NC(=O)c1ccccc1NC(=O)c1ccc2c(c1)OCO2 | 9.29
Cn1c(=O)c2c(ncn2CC(=O)N2CCN(S(=O)(=O)c3ccccc3)CC2)n(C)c1=O | 13.7

Structure (SMILES) | hERG current change (%, negative = inhibition) at 1uM [%]
NC(=O)CC(NC(=O)c1cccc(Br)c1)c1ccc(N2CCN(c3ccc(F)cc3)CC2)c([N+](=O)[O-])c1 (stereo not drawn) | 2.68
CC(=O)c1cc2c(cc1NC(=O)CSc1nc3ccc(C)cc3[nH]1)OCO2 | -3.23
CCOC(=O)/C(C#N)=C/c1cc(C)n(-c2ccc(Br)cc2)c1C | 9.31
COC(=O)c1cccc(NC(=O)c2cccnc2)c1.Cl | -6.64
O=C(Cc1n[nH]c(=O)c2ccccc12)NCc1ccccc1 | -9.53
CCn1c(SCC(N)=O)nc2sc3c(c2c1=O)CCN(C)C3 | 14.1
CC(SC1=NCCN1S(C)(=O)=O)c1ccccc1 (stereo not drawn) | 8.7
Cc1cc(=O)[nH]c(SCC(=O)Nc2nc(-c3ccccc3)c(-c3ccccc3)o2)n1 | 2.67
CC1CC(=O)c2c(cc3c(-c4c(O)cc(O)c5c(O)c6c(cc45)OC(C)CC6=O)c(O)cc(O)c3c2O)O1 (stereo not drawn) | 1.55
O=C(NCCN1CCOCC1)Nc1ccccc1 | 0.366
COc1ccc(N(CC(=O)N2CCN(Cc3ccccc3)CC2)S(C)(=O)=O)c(OC)c1 | 12.5
CNC(=O)C(NC(=O)c1ccccc1)=C(C)C | -1.26
COc1cccc(-c2cc(C(=O)NC3CCCC3)no2)c1 | 4.68
COc1ccc(-n2c(=O)cc(N3CCN(c4ccccc4)CC3)[nH]c2=O)cc1 | 11
O=C(COc1ccc2ccccc2c1)NCCc1ccc2c(c1)OCCO2 | 2.52
COc1cccc(NC(=O)COC(=O)c2c(C)noc2C)c1 | 6.06
O=C(NCc1cccc2[nH]ccc12)C1CCC(=O)N(CCc2ccccc2)C1 (stereo not drawn) | 16.1
O=C(CN1C(=O)c2ccccc2C1=O)N1CCCCC1 | -0.852
COc1ccc(-c2csc(N(CCCN(C)C)C(=O)c3ccccc3Cl)n2)cc1.Cl | -12.5
